The target in experiment [1] is T1, HsANKRD11 truncation T6 (aa 1160-1470) (human) (UniProt Q6UB99).
T1 sequence: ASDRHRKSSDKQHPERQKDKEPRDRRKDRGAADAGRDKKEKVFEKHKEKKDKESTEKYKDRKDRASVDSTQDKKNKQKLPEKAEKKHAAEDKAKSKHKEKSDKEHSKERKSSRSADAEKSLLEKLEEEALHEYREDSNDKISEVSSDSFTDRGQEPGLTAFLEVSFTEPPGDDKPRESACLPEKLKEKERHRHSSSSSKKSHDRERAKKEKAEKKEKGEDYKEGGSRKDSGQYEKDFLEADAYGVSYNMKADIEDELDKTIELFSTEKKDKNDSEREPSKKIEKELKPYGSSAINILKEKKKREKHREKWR
Nature of the experiment: co-IP; V5-tagged HsANKRD11 truncations T1-T6 transfected into 293T cells and precipitated; blots for HDAC3 and Hs65K; T6 and T2 also after knock-down of HDAC3.

Sequences of proteins named here, by UniProt entry; tags and fusion partners are left off.
UniProt Q13547: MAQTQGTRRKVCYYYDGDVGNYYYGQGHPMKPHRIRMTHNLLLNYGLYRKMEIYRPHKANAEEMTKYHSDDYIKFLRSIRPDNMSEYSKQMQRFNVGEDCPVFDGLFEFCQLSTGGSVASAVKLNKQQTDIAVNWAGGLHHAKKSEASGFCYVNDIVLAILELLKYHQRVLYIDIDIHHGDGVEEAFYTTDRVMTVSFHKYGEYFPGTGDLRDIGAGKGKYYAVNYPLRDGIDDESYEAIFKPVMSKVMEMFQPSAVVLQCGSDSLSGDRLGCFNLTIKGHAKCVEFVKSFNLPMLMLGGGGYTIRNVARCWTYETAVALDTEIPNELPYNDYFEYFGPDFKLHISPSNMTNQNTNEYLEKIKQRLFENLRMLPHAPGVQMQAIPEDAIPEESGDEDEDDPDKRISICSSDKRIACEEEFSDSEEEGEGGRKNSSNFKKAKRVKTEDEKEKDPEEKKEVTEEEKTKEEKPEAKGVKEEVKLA
UniProt Q92769: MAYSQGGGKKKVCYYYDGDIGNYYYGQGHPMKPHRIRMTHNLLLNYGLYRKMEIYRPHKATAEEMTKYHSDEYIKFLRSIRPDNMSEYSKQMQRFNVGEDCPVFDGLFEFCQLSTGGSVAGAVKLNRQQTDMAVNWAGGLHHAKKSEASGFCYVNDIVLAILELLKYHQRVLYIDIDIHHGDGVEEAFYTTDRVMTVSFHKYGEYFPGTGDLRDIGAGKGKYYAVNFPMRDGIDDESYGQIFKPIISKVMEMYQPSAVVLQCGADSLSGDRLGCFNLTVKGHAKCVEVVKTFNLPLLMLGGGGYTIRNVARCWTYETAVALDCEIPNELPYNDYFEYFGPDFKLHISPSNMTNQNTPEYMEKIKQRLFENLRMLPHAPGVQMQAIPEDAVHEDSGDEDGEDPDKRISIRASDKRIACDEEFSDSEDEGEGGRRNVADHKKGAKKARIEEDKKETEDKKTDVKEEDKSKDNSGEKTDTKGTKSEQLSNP
UniProt O75376: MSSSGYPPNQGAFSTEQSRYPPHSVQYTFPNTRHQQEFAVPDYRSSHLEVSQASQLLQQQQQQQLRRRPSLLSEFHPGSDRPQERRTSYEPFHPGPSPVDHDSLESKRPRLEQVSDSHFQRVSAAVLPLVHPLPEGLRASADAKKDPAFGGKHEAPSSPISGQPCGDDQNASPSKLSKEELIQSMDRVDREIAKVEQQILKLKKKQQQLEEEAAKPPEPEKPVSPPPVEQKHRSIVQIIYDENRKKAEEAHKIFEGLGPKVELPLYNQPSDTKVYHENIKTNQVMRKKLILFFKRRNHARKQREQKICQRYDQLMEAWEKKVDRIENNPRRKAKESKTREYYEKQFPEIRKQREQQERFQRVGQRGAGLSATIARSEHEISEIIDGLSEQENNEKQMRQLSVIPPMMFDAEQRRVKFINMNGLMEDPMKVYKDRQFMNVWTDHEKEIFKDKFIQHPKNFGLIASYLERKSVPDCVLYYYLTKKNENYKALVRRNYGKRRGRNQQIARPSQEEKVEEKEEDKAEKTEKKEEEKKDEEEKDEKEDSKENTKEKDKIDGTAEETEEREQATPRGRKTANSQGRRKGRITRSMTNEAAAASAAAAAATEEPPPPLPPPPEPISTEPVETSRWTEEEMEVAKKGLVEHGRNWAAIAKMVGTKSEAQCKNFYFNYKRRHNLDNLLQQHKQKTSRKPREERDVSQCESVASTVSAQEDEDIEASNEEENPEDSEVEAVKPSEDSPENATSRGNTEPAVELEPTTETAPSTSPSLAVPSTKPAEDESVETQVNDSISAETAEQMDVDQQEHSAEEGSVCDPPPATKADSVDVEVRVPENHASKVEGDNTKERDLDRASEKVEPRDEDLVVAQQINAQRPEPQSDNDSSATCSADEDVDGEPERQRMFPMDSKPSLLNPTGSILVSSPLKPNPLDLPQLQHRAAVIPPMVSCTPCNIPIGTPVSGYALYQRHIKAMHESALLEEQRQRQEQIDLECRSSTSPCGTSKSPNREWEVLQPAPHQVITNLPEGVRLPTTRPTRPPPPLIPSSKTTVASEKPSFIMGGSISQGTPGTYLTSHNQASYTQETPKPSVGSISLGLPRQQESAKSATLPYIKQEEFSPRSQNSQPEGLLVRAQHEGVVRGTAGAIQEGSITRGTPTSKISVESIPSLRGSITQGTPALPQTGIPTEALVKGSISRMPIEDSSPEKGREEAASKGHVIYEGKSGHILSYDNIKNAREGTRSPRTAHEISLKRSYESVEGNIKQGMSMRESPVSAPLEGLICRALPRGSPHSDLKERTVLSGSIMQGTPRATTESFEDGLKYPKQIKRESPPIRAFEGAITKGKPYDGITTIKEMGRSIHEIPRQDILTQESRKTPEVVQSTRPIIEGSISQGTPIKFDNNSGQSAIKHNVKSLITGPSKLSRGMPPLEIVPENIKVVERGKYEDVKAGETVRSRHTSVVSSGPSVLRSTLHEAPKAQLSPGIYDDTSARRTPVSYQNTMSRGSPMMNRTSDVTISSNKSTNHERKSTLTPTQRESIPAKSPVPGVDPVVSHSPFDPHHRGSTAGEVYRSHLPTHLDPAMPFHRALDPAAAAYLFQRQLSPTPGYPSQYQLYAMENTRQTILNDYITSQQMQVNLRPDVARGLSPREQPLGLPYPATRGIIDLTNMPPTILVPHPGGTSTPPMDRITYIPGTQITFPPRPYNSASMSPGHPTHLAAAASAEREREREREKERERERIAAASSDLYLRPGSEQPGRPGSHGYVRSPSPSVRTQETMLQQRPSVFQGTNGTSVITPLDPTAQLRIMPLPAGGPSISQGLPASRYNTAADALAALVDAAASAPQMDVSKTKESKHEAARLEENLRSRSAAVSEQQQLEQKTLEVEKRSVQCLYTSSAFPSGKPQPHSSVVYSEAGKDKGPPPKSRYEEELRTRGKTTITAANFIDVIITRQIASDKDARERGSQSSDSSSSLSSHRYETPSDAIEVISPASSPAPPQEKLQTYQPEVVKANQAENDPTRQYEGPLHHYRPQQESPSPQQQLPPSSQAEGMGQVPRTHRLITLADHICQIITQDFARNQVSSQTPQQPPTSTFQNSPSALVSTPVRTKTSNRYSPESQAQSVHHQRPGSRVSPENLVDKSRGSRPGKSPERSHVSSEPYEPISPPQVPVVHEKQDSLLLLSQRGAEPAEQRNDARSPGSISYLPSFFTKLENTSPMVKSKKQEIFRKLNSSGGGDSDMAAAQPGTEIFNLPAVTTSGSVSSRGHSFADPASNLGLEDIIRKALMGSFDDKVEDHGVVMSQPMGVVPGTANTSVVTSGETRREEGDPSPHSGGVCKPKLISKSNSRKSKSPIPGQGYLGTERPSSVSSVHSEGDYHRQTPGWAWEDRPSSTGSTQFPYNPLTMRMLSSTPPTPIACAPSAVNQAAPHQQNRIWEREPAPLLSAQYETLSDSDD
UniProt Q9Y6Q9: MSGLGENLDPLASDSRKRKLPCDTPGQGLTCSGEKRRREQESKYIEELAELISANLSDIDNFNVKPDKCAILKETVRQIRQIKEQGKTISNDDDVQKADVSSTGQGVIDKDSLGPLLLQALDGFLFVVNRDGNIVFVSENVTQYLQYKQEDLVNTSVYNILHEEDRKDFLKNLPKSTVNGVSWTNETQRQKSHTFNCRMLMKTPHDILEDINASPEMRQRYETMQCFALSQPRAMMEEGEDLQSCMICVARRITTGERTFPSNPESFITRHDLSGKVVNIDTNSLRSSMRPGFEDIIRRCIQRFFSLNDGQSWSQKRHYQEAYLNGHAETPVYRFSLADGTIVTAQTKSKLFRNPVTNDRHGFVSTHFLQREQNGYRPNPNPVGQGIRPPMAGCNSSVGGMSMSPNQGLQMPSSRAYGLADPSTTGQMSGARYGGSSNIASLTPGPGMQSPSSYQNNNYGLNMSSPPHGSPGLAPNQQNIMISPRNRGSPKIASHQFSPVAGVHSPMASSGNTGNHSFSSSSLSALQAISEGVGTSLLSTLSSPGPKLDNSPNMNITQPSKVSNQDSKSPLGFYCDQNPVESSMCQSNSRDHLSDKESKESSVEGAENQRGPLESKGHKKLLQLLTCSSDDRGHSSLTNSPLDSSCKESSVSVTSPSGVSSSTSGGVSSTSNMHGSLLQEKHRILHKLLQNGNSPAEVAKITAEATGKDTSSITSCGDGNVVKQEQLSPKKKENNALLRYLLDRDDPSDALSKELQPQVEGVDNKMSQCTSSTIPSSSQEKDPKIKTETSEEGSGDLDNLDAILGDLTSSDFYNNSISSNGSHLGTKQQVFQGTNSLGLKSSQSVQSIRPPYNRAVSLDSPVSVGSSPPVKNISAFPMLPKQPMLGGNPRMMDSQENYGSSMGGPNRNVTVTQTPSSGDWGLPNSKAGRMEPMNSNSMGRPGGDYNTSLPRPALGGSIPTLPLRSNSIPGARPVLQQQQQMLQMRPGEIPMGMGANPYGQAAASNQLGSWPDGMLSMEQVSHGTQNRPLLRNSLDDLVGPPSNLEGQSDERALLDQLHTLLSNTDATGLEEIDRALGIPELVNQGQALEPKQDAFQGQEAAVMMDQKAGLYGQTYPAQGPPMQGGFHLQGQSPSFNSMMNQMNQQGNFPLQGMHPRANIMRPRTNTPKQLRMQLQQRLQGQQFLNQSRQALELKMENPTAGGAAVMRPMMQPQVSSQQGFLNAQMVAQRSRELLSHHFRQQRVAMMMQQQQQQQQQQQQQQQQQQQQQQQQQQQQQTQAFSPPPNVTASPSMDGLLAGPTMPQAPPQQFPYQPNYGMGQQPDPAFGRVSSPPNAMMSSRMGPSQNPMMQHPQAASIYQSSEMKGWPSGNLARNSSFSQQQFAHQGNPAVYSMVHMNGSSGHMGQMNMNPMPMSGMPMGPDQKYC
UniProt Q15788: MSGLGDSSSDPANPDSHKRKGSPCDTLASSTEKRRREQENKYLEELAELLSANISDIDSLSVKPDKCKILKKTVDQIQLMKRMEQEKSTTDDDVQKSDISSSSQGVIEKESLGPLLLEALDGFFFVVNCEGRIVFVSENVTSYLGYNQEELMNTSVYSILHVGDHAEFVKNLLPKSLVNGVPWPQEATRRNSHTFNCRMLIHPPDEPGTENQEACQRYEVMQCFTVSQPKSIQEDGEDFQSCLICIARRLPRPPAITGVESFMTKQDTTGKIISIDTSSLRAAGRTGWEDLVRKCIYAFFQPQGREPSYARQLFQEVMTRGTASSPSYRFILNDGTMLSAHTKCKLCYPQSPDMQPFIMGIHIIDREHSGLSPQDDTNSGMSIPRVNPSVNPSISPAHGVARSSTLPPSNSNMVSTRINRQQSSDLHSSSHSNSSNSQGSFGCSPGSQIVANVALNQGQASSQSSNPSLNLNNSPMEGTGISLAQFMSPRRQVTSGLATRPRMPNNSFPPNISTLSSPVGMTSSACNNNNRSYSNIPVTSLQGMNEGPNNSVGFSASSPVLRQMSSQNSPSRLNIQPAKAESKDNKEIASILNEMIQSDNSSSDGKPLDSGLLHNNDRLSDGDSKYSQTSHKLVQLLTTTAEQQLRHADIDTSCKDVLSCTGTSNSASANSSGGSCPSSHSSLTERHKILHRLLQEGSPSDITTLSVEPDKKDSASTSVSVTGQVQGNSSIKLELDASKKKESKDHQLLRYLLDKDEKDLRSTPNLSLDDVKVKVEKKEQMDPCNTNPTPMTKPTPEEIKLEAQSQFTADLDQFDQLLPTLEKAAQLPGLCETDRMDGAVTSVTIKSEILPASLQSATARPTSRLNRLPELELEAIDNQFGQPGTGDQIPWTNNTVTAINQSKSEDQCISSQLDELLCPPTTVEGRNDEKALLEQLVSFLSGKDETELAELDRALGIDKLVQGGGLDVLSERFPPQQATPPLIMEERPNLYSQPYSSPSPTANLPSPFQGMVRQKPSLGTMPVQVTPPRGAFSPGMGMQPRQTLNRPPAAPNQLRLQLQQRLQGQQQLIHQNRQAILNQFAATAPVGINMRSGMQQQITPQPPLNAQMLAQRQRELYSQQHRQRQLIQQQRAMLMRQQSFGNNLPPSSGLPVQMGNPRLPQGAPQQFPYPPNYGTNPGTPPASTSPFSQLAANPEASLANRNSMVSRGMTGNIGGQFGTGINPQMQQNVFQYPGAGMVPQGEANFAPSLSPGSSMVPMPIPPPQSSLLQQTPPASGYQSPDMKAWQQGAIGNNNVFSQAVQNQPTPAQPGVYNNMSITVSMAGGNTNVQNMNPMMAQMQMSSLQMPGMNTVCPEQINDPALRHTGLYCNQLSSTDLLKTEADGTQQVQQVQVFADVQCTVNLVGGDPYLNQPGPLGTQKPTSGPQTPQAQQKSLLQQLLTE

A further experiment deals with T2, Hs65K (human) (UniProt Q96LT9).
T2 sequence: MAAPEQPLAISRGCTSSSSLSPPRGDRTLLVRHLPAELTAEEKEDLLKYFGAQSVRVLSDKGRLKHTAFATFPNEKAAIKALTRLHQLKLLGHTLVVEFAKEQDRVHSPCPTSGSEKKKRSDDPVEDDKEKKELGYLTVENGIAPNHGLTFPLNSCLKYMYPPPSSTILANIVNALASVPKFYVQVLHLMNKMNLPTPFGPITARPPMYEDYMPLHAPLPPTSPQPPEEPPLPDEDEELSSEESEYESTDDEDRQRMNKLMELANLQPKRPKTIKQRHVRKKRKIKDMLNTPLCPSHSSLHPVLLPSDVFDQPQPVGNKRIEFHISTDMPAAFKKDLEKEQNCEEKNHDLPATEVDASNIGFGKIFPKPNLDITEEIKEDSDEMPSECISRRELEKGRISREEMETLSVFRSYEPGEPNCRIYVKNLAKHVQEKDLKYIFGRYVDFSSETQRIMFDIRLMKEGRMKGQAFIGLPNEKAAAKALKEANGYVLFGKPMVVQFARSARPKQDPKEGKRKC
The experiment is described as follows: co-IP; 293T cell lysate, 65K antibody (Proteintech 25820-1-AP) pre-conjugated to protein A-G magnetic beads; western blot. (In general: In western blotting, separated proteins are transferred to a membrane and probed.)

Experiment [2] concerns the target HDAC1 (human (endogenous in 293T)) (UniProt Q13547). Nature of the experiment: co-IP; 293T cells, precipitation with antibodies against HDAC1, HDAC2 or HDAC3, blot for Hs65K; also after shRNA knock-down of HsANKRD11 (fewer Hs65K).
Experiment [3] concerns the target HDAC2 (human (endogenous in 293T)) (UniProt Q92769). The experiment is described as above.

Results are given in words; binding and its absence hold for the method and conditions named. In cells and extracts the contact can be indirect. Some binding calls cover weakened binding; strength is not graded here.

“HDAC3 (from UniProt O15379 1-428) (enzyme)”: the binding result in experiment [1] was “no binding”.
NOCR1 (from UniProt O75376 1-2440): the binding result with Hs65K (human) is listed as “binds”.
Still for that read-out and setting: then RAC3 (from UniProt Q9Y6Q9 1-1424), with “no binding”; and SRC1 (from UniProt Q15788 1-1441), with “no binding”.
On the same count and under the same terms, the entry for TIF2 (from UniProt Q15596 1-1464) is “no binding”.

B1: Hs65K (protein, UniProt Q96LT9 1-517)
chain: MAAPEQPLAISRGCTSSSSLSPPRGDRTLLVRHLPAELTAEEKEDLLKYFGAQSVRVLSDKGRLKHTAFATFPNEKAAIKALTRLHQLKLLGHTLVVEFAKEQDRVHSPCPTSGSEKKKRSDDPVEDDKEKKELGYLTVENGIAPNHGLTFPLNSCLKYMYPPPSSTILANIVNALASVPKFYVQVLHLMNKMNLPTPFGPITARPPMYEDYMPLHAPLPPTSPQPPEEPPLPDEDEELSSEESEYESTDDEDRQRMNKLMELANLQPKRPKTIKQRHVRKKRKIKDMLNTPLCPSHSSLHPVLLPSDVFDQPQPVGNKRIEFHISTDMPAAFKKDLEKEQNCEEKNHDLPATEVDASNIGFGKIFPKPNLDITEEIKEDSDEMPSECISRRELEKGRISREEMETLSVFRSYEPGEPNCRIYVKNLAKHVQEKDLKYIFGRYVDFSSETQRIMFDIRLMKEGRMKGQAFIGLPNEKAAAKALKEANGYVLFGKPMVVQFARSARPKQDPKEGKRKC
As to B1, the results for the binding entry in experiment [2], in experiment [3] and in experiment [1] were “no binding”, “no binding” and “binds”, respectively.

Source of the values: PMC11304329.
